The values below come from a collection of fitness landscapes (doi:10.1126/science.1257360).

First the molecules themselves.
B1: PhoQ; a variant is named by its letters at X, in order, P23837 (parent)
chain: MKKLLRLFFPLSLRVRFLLATAAVVLVLSLAYGMVALIGYSVSFDKTTFRLLRGESNLFYTLAKWENNKLHVELPENIDKQSPTMTLIYDENGQLLWAQRDVPWLMKMIQPDWLKSNGFHEIEADVNDTSLLLSGDHSIQQQLQEVREDDDDAEMTHSVAVNVYPATSRMPKLTIVVVDTIPVELKSSYMVWSWFIYVLSANLLLVIPLLWVAAWWSLRPIEALAKEVRELEEHNRELLNPATTRELTSLVRNLNRLLKSERERYDKYRTTLTDLTHSLKTPLXXLQXXLRSLRSEKMSVSDAEPVMLEQISRISQQIGYYLHRASMRGGTLLSRELHPVAPLLDNLTSALNKVYQRKGVNISLDISPEISFVGEQNDFVEVMGNVLDNACKYCLEFVEISARQTDEHLYIVVEDDGPGIPLSKREVIFDRGQRVDTLRPGQGVGLAVAREITEQYEGKIVAGESMLGGARMEVIFGRQHSAPKDE

The list shows a part of the results.

In the test the parent is B1. As to the kind of experiment: enrichment ratio after two sorts for PhoP signalling (ratio (wild type AVST 3.29)); higher = more functional. Particulars: with PhoP (E. coli).
Turning to LCSK, the enrichment ratio was at most 0.25.

As to YMMC, the enrichment ratio was at most 0.25. Then WHTP, with at most 0.25; and ITSL, with at most 0.25.

As for TNWS, the enrichment ratio is 0.852. VTDF: the enrichment ratio was at most 0.25. Then GPPR, with at most 0.25; and KVNM, with at most 0.25; and TCAI, with 5.44. Under TACD stands at most 0.25; under GYIN, at most 0.25. Then GIHP, with at most 0.25; and EADK, with at most 0.25; and HTRA, with at most 0.25. Regarding VSFL, the enrichment ratio worked out at 2.98. As for MVTL, the enrichment ratio came to 4.61. As to CCLM, the enrichment ratio was at most 0.25.

As to FFNA, the enrichment ratio is at most 0.25. Under VIAG stands at most 0.25; under AMTY, 9.73; under YPFL, at most 0.25. Under SALV stands 14.6; under YVSK, at most 0.25; under PYHV, at most 0.25. For TTYA, the enrichment ratio came to 1.14. Consider MKET, for which the enrichment ratio is at most 0.25. Then KCID, with at most 0.25; and HPSW, with at most 0.25. Take RFKL: the enrichment ratio is at most 0.25. On to HHYQ, for which the enrichment ratio is at most 0.25. Then EQTV, with at most 0.25; and EDMF, with at most 0.25. Under MACC stands at most 0.25; under NKVA, at most 0.25. Under QSLH stands at most 0.25; under LGLL, 6.87; under TGTD, at most 0.25. As for YGIC, the enrichment ratio worked out at 0.281. Then KKWD, with at most 0.25.

Regarding RATC, the enrichment ratio is at most 0.25. Then DCIS, with at most 0.25.

On to TDVQ, for which the enrichment ratio was 5.63. Then PTHP, with at most 0.25; and AQIR, with at most 0.25; and HFML, with at most 0.25. Under ESFF stands at most 0.25; under GPSH, at most 0.25; under HENY, at most 0.25.

In the case of LEQT, the enrichment ratio was at most 0.25. As for VQAE, the enrichment ratio was at most 0.25. Then MISQ, with 0.426. With IGWC, the enrichment ratio was at most 0.25. Under MTMM stands 59.5; under LPHT, at most 0.25; under YYNH, at most 0.25.

For FWWF, the enrichment ratio was at most 0.25. Turning to NEYY, the enrichment ratio is at most 0.25. Then TYTG, with 2.49; and RAVH, with at most 0.25; and NWTG, with at most 0.25. Under GIIL stands 1.49. Then VQDT, with at most 0.25; and EFQI, with at most 0.25; and EFSP, with at most 0.25.

Regarding NRFR, the enrichment ratio is at most 0.25. Under GSPF stands at most 0.25; under CIVF, 0.285; under MVGN, 10.6. Under DGLL stands at most 0.25. Under RTRG stands at most 0.25; under AYGL, at most 0.25; under ATVI, 6.44.

On to WAAR, for which the enrichment ratio was at most 0.25. For KHLK, the enrichment ratio is at most 0.25. Then RIST, with at most 0.25; and KYGH, with at most 0.25; and SFPQ, with at most 0.25. Then GRSN, with at most 0.25. Regarding QLYI, the enrichment ratio was determined as 1.99.

Take LPWS: the enrichment ratio is at most 0.25.

LDCM: the enrichment ratio was at most 0.25. As to GNPH, the enrichment ratio was at most 0.25.

Take PVMV: the enrichment ratio was at most 0.25. Then LGGF, with at most 0.25; and RDKI, with at most 0.25; and PPDD, with at most 0.25.

As to EHAR, the enrichment ratio was at most 0.25. Under GWMF stands at most 0.25. As to PGQP, the enrichment ratio is at most 0.25. Then EIWI, with at most 0.25; and QDML, with at most 0.25; and YPEC, with at most 0.25. Then YKAY, with at most 0.25. Under MRTI stands 0.883; under PWQC, at most 0.25; under WIAL, at most 0.25.

As to WIIF, the enrichment ratio is at most 0.25. With TNQQ, the enrichment ratio turned out to be 6.6.

GDWY: the enrichment ratio was at most 0.25. On to LITH, for which the enrichment ratio is at most 0.25.

Consider ICVD, for which the enrichment ratio is at most 0.25. On to HKKH, for which the enrichment ratio was at most 0.25. As to QEFM, the enrichment ratio amounted to 18.2. Under LPCR stands at most 0.25; under PHHV, at most 0.25; under LYAN, at most 0.25.

With KCNM, the enrichment ratio was at most 0.25. With IDHQ, the enrichment ratio is at most 0.25. Under PHES stands at most 0.25; under WVWW, at most 0.25. As for PWDV, the enrichment ratio is at most 0.25. On to GQMN, for which the enrichment ratio was at most 0.25. Under PTYL stands at most 0.25; under EYSQ, at most 0.25. As for DMFS, the enrichment ratio is at most 0.25. With PWHY, the enrichment ratio was at most 0.25. As for VTHE, the enrichment ratio was at most 0.25. As for EGSK, the enrichment ratio is at most 0.25. For the variant YNNA, the enrichment ratio is at most 0.25. With ALPQ, the enrichment ratio was at most 0.25. Then TWDN, with at most 0.25; and QWFF, with at most 0.25. As to QGSK, the enrichment ratio is at most 0.25. For the variant MRAP, the enrichment ratio is at most 0.25. Under FGWQ stands at most 0.25; under HFQC, at most 0.25. As to RQSR, the enrichment ratio was at most 0.25. Under QTSL stands 3.2. Under RAGW stands at most 0.25.

Regarding PCSI, the enrichment ratio was at most 0.25. In the case of GVMF, the enrichment ratio worked out at 2.88. Under VDFM stands at most 0.25. Then MVYT, with at most 0.25; and PQRD, with at most 0.25.

On to NMLW, for which the enrichment ratio is at most 0.25.

MENY: the enrichment ratio was at most 0.25. As for TAHM, the enrichment ratio turned out to be 14.1. Take YMTR: the enrichment ratio was at most 0.25. In the case of TIYF, the enrichment ratio was at most 0.25. Take TMYS: the enrichment ratio is at most 0.25. Under RGET stands at most 0.25; under SKSE, at most 0.25; under QIPH, at most 0.25.

With YLVV, the enrichment ratio is at most 0.25. Under SWNK stands at most 0.25; under NTDC, at most 0.25. Under TWTT stands at most 0.25; under NGVN, at most 0.25; under RLHE, at most 0.25. Consider RNQP, for which the enrichment ratio was at most 0.25.

For the variant NSVA, the enrichment ratio is at most 0.25. Turning to DMTI, the enrichment ratio was at most 0.25. Take VEDV: the enrichment ratio is at most 0.25.
